From publication PMC12713088
These are yes or no findings as the source states them, for the method shown. Some binding calls cover weakened binding; strength is not graded here. Tags and fused reporters may be left off the sequences shown.

The chains behind the UniProt entries cited, without tags or fusion partners.
UniProt Q8GUI6: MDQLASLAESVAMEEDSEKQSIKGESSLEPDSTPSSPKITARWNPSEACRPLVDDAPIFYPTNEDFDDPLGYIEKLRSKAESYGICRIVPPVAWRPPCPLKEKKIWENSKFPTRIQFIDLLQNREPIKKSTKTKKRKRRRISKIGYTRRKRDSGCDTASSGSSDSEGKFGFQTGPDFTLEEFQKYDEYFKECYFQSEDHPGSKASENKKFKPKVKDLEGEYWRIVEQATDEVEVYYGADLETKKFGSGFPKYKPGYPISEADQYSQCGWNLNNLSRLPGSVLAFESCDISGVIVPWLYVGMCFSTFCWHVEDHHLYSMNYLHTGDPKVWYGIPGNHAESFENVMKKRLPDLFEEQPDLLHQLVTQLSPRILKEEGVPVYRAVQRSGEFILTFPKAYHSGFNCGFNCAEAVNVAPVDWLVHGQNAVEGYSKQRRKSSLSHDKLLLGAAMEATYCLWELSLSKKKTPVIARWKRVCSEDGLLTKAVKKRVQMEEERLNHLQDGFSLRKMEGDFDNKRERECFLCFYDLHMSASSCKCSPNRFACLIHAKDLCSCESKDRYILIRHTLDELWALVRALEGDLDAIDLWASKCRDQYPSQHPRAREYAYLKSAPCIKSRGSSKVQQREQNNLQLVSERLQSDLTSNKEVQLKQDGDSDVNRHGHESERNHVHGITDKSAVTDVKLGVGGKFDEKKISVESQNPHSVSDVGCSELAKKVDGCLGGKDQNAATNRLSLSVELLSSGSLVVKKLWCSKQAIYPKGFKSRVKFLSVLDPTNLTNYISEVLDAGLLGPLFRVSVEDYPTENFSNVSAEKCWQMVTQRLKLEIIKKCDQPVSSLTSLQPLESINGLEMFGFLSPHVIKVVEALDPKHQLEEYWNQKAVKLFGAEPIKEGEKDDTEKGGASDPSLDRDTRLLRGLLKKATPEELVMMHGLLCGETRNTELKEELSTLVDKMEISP

Key:
[1] = biological target: T1, NAC050-MBP, recombinant (Arabidopsis thaliana) (UniProt Q9SQX9); assay: SEC; purified proteins mixed in equivalent molar amounts, 4 °C overnight, Superose 6 10/300GL; fractions detected by immunoblotting (GST, FLAG, MBP, HIS); both purified
T1 sequence: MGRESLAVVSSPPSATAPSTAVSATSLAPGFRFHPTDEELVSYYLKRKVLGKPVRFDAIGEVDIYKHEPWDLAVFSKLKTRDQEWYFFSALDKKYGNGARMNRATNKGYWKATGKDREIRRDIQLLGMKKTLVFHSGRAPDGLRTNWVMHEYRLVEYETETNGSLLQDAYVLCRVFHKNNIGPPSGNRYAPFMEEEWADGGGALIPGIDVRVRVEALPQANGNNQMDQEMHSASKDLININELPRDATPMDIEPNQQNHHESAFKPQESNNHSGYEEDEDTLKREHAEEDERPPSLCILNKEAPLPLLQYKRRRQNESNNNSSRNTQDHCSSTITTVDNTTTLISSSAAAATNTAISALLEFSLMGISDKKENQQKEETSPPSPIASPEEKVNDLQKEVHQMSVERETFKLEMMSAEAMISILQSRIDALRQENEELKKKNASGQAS

[2] = biological target: T2, NAC052, yeast two-hybrid fusion (Arabidopsis thaliana) (UniProt Q9SQY0); assay: two-hybrid; pGADT7 and pGBKT7 fusions, strains AH109 and Y187 mated; growth on SD-LWH with 0 or 3 mM 3-AT
T2 sequence: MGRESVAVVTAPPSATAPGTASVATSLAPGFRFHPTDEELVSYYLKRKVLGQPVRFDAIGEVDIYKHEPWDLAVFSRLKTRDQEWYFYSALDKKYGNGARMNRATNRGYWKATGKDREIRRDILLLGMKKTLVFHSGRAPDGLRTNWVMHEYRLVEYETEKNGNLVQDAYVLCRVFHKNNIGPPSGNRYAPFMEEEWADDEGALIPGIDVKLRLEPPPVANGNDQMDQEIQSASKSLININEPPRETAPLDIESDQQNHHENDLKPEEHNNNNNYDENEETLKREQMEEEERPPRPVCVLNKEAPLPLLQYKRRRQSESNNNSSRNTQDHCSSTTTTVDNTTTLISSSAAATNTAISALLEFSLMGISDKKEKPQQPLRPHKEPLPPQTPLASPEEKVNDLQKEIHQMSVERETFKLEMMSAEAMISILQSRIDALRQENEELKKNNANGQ

[3] = biological target: T3, NAC050, yeast two-hybrid fusion (Arabidopsis thaliana) (UniProt Q9SQX9); assay: as above
T3 sequence: T1 sequence

For “JMJ14-Flag, recombinant (from UniProt Q8GUI6 1-954) (enzyme)”, the binding [1] was “binds”.

For “JUMONJI14 (JMJ14), yeast two-hybrid fusion (from UniProt Q8GUI6 1-954) (enzyme)”, the binding [2] was “binds” and the binding [3] was “binds”.
